Among all 310,000 compounds or so, about 2,200 (0.71%) showed an effect of 50% or more. Effects have a minus sign here. The list shows a part of the results.
target: human ether-à-go-go-related gene (hERG) potassium channel (human, UniProt Q12809); test: primary screen, population patch clamp on CHO cells stably expressing hERG
Sequence (Q12809 whole entry, looked up): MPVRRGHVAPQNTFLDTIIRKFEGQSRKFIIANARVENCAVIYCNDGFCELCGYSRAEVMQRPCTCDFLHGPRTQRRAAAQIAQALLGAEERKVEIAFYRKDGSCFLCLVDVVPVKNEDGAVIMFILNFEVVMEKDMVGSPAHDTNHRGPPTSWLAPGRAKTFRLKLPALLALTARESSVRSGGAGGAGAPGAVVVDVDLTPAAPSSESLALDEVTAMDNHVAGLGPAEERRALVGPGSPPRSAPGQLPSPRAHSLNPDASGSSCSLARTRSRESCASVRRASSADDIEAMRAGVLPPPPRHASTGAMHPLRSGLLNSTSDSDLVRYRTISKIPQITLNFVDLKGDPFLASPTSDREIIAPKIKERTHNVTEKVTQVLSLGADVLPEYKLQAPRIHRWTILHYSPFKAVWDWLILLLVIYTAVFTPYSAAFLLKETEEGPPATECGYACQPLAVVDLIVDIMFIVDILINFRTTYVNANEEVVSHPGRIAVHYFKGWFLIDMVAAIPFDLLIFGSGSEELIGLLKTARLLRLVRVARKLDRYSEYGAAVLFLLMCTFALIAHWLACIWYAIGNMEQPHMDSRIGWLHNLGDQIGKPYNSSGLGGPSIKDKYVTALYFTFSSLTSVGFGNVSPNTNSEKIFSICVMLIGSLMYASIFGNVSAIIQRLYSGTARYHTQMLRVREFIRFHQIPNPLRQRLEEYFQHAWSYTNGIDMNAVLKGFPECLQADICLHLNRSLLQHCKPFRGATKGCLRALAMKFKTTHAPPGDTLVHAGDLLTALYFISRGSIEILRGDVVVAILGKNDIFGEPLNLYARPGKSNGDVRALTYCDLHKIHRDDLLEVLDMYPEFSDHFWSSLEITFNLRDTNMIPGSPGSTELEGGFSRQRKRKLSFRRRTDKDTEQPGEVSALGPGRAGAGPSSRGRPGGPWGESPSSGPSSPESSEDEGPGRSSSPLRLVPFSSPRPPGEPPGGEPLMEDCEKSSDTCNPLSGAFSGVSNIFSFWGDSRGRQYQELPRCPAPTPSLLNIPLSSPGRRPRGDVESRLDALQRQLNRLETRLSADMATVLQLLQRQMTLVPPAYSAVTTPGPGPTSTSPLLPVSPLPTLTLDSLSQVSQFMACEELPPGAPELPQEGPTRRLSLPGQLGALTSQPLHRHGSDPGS

SMILES | hERG current change (%, negative = inhibition) at 1uM
NC(=O)c1ccccc1NC(=O)CCc1ccccc1 | -1.09%
CCN1CCN(c2nc(-c3ccc(F)cc3)cc(=O)[nH]2)CC1 | 6.95%
Cc1ccc(S(=O)(=O)c2c(COC(=O)c3ccc(Cl)cc3)c(-c3ccccc3)nn2C)cc1 | 2.77%
C=CCOc1ccc(CNn2nnnc2N)cc1 | 17.8%
Cc1ccccc1C(=O)Nc1cc(-c2cc(C(C)(C)C)oc2C)nn1C | 10.3%
[O-]/C(=C(\C(=S)Nc1ccc(SC(F)F)cc1)[n+]1ccccc1)c1ccc(Cl)cc1Cl | 6.05%
CCc1ccccc1NC(=O)c1ccc(CN2CCC(Cc3ccccc3)CC2)cc1 | 5.13%
CCc1ccc(O)c(N=Cc2cccc(C)c2O)c1 | 13%
COc1ccc(N2CC(C(=O)Nc3ccccc3C(=O)NC3CC3)CC2=O)cc1 (stereo not drawn) | 10.7%
N#Cc1ncc(-c2ccc3c(c2)OCCOCCOCCOCCOCCO3)nc1C#N | -84.8%
Cc1cc(C)c(OCC(=O)NCC(c2ccco2)N2CCCCC2)c(C)c1 (stereo not drawn) | 1.04%
Cl.Clc1ccccc1/C=N/N1CCN(Cc2ccccc2)CC1 | 8.02%
CC(CCc1ccccc1)NC(=O)C(Cc1ccccc1)NC(N)=O (stereo not drawn) | 16.3%
CCc1ccc(OCC(O)CNC(C)(C)C)cc1.Cl (stereo not drawn) | 4.94%
COc1ccc(OC)c(-c2csc(NC(=O)Cc3cccs3)n2)c1 | 8.97%
Cc1ccc(S(=O)(=O)N2CCN(C(=O)c3n[nH]c(=O)c4ccccc34)CC2)c(C)c1 | -6.11%
Cc1ccc(S(=O)(=O)/N=C(/c2ccccc2)N2CCOCC2)cc1 | 11.9%
CCCC(NC(=O)COc1cc2c(c3oc(=O)cc(C)c13)CCC(C)(C)O2)C(=O)O (stereo not drawn) | 12.8%
COc1cc(/C=N\NC(=O)c2ccc(-c3ccccc3)cc2)cc(OC)c1OC(C)=O | 8.53%
Cn1c(NC(=O)c2ccc(F)cc2)c(-c2ccccn2)c(=O)c2ccccc21 | 17%
Cc1ccc(C)n1NC(=O)c1ccc([N+](=O)[O-])cc1 | 9.54%
O=C1CC(NC(=O)C(F)(F)F)=NN1c1ccccc1 | 9.44%
CC(=O)Nc1ccc(Oc2cc(C#N)c(C#N)cc2N2CCCCCC2)cc1 | 15.9%

SMILES | hERG current change (%, negative = inhibition) at 1uM
COc1ccccc1N1CCN(S(=O)(=O)/C=C/c2ccccc2)CC1 | 1.66%
COc1cc(C)c(CN2CCN(CC(=O)Nc3ccccc3C(=O)NC3CC3)CC2)cc1OC | -87.6%
Cc1ccc(S(=O)(=O)N(CC(=O)N/N=C/c2cccc(C)c2)c2cccc3cccnc23)cc1 | 8.65%
O=C(N/N=C/c1cc(Cl)ccc1O)c1ccncc1 | 2.23%
N#Cc1nc(-c2ccc(Cl)cc2)oc1NCCc1ccccn1 | 6.75%
Cc1cccc(NCc2nc3ccccc3n2C)c1 | 8.64%
CCOc1cc(/C=C(/C#N)c2ccc(F)cc2)ccc1OCc1ccc(C(=O)O)o1 | 6.6%
O=[N+]([O-])c1ccccc1/C=C\C=N\N1CCN(c2ccccc2)CC1 | -7.95%
Cc1ccc(-c2nc3c(c(=O)[nH]c(=O)n3Cc3ccccc3)n2C)s1 | 3.08%
CC1CCN(C(=S)NC(=O)c2cccs2)CC1 | 11.1%
CCOC(=O)c1c(NC(=O)c2ccc(Br)o2)sc2c1CCCC2 | -9.54%
CC(=O)Nc1ccc(S(=O)(=O)N(CC(=O)Nc2cc(C)on2)Cc2ccc(F)cc2)cc1 | 5.22%
Cc1cc(C(=O)COC(=O)c2n[nH]c3ccccc23)c(C)n1C | 15.6%
COc1ccc(CNC(=O)CN(Cc2ccccc2)S(=O)(=O)c2ccc(Cl)cc2)cc1 | -15.2%
CCOc1ccc(-c2cn(CCC#N)cn2)cc1 | 15.4%
COc1cc(C(=O)N/N=C(\C)c2ccc3c(c2)OCO3)cc(OC)c1OC | 7.07%
Cc1cc2c(ncn2Cc2ccccc2)c([N+](=O)[O-])c1C | 2.99%
CC(=O)NC(c1ccccc1)c1cccnc1 (stereo not drawn) | 7.08%
COc1cc(CNC2CCCCCCC2)c(Br)cc1OCCO.Cl | 13.3%
CC(C)(C)c1cc(C(=O)N2CCc3ccccc32)ccn1 | 6.46%
N#CCCN1CCN(C(=S)c2ccc(-c3cccc(Cl)c3)o2)CC1 | -36.1%
Cc1ccc(CNC(=O)C(=O)NCC2OCCN2C(=O)c2ccc3c(c2)OCO3)cc1 (stereo not drawn) | 4.48%

Reference: article PMC4336329 (PLoS ONE, 2015)
